Results reported in PubChem BioAssay AID588855 (National Center for Advancing Translational Sciences (NCATS), 2011).
Out of some 410,000 compounds screened, about 5,000 (1.2%) were called active. This list was built around the results that the source calls inconclusive (neither active nor inactive); the mix of calls is not that of the screen. The call rests on the fitted dose curve; in most records, active means well fitted inhibition curve with a large enough effect; inconclusive means small, poorly fitted or top-dose-only effect; inactive means no such curve, though single readings can be large or run the other way. Potencies beside an inconclusive call are fits to weak or partial responses and may not hold up.

experiment: qHTS for Inhibitors of TGF-b; conditions: HepG2 CAGA-GFP TGF-b/SMAD3 reporter, GFP fluorescence, 18 h, TGF-beta stimulated, 500 pg/mL final; series mostly up to 46.1 µM; activity, negative = inhibition: at the top concentration; further: nearly all actives have a fitted effect of over 65% in size
Method in brief: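 Using HEPG2 CAGA-GFP reporter cells at 1000 cells/well, we pinned test compounds, stimulated with recombinant TGF-beta (500 pg/mL final) and measured total well GFP after 18 h.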
On the % scale 0 is the no-effect control and ±100 the full control effect; potency means the concentration at half of the fitted maximal effect; tags describe the fitted curve by direction and shape.

Row | Compound | Potency | activity, negative = inhibition
1 | Cc1cc(Nc2ccc(F)cc2)nc(-n2nc(C)cc2C)n1 | inconclusive: 8.91 µM [inhibitor, partial curve] | –
2 | O=S(=O)(Nc1ccc(Cl)cc1)c1cccc(S(=O)(=O)c2ccc(Cl)c(Cl)c2)c1 | active: 14.1 µM | –
3 | OC(c1ccc2ccccc2c1)c1ncc(-c2cccc3ccccc23)[nH]1 (stereo not drawn) | inconclusive: 35.5 µM [inhibitor, single point] | –
4 | COc1ccc(S(=O)(=O)N2CCN(Cc3cccc(Cl)c3)CC2)cc1 | inconclusive: 31.6 µM [inhibitor, single point] | –
5 | CCN(CC)C(=O)Cn1cc(SCC(=O)NCc2ccco2)c2ccccc21 | inconclusive: 2.82 µM [inhibitor, single point] | –
6 | Brc1ccc(CNc2cc3c(cc2Br)OCCO3)cc1 | – | inactive: 9.34%
7 | Cc1ccc([C@H]2N[C@]3(CCCN(Cc4ccc(F)cc4)C3=O)[C@H]3C(=O)N(C)C(=O)[C@@H]23)cc1 | inconclusive: 3.16 µM [inhibitor, single point] | –
8 | CC(C)(C)c1cc(=O)[nH]c(SCc2ccccc2)n1 | inconclusive: 39.8 µM [inhibitor, partial curve, poor fit] | –
9 | Cc1ccc(C)c(N2CCN(CCCNC(=O)Nc3ccc(Cl)cc3)CC2)c1 | inconclusive: 35.5 µM [inhibitor, single point] | –
10 | O=C1/C(=C/c2ccccc2)CN(C(=O)CCN2CCOCC2)C/C1=C\c1ccccc1 | active: 2.24 µM | –
11 | COc1ccc(C2=C(CN(C)C)C(c3ccccc3)c3ccccc3O2)cc1 (stereo not drawn) | inconclusive: 3.98 µM [inhibitor, full curve, poor fit] | –
12 | COc1ccc(/C=N/Nc2ncc(-c3ccccc3)cn2)c(OC)c1 | inconclusive: 35.5 µM [inhibitor, single point] | –
13 | CCOC(=O)C1CCCN(C(=O)Cn2nc(CC)n3c(cc4occc43)c2=O)C1 (stereo not drawn) | inconclusive: 7.08 µM [inhibitor, partial curve] | –
14 | CC1(C(=O)Nc2ccc(F)c(Cl)c2)Cc2c(-c3cccc(C(F)(F)F)c3)ccnc2O1 (stereo not drawn) | inconclusive: 22.4 µM [inhibitor, single point] | –
15 | COc1ccccc1N1CCN(CC(O)COc2ccc(C)cc2C(C)(C)C)CC1 (stereo not drawn) | inconclusive: 22.4 µM [inhibitor, single point] | –
16 | S=c1[nH]nc(-c2ccncc2)n1Cc1ccco1 | – | inactive: 6.69%
17 | Cc1cccc(Nc2c3c(nc4nncn24)CCC3)c1C | inconclusive: 0.316 µM [inhibitor, full curve, poor fit] | –
18 | COc1ccc(CCNC(=O)COc2ccc(N(C)S(=O)(=O)c3ccc(C)cc3)cc2)cc1 | inconclusive: 11.2 µM [inhibitor, partial curve, poor fit] | –
19 | Cc1cc(C)n(C(=O)COc2ccc([N+](=O)[O-])cc2)n1 | – | inactive: 3.18%
20 | COc1ccc2c(c1)c1c(c(=O)n(-c3ccccc3C)c(=O)n1Cc1c(F)cccc1Cl)n2C | – | inactive: 0.422%
21 | COc1ccccc1C(=O)NC(=O)COC(=O)CNC(=O)c1ccccc1 | – | inactive: 6.81%
22 | CC1CCN(C(=O)C(C)OC(=O)c2ccc(S(C)(=O)=O)c([N+](=O)[O-])c2)CC1 (stereo not drawn) | active: 10 µM | –

Row | Compound | Potency | activity, negative = inhibition
23 | O=C1[C@@H](Oc2ccccc2)[C@@H](c2cnc3ccccc3c2)N1c1ccccc1 | active: 11.2 µM | –
24 | CCOC(=O)C1(C)C=C(Nc2ccc(C(=O)O)cc2)C(=O)N1c1ccc(C(=O)O)cc1 (stereo not drawn) | – | inactive: -5.81%
25 | C=C(C)CNC(=S)N/N=C/C1=CCC2CC1C2(C)C (stereo not drawn) | inconclusive: 25.1 µM [inhibitor, partial curve, poor fit] | –
26 | COc1ccc(N2CC(NC(=O)c3c(F)cccc3Cl)CC2=O)cc1OC (stereo not drawn) | – | inactive: -24.9%
27 | Nc1nc(SCc2ccc(Br)cc2)c2ncn(C3OC(CO)C(O)C3O)c2n1 (stereo not drawn) | – | inactive: -3.14%
28 | O=C(c1ccncc1)N1CCN(S(=O)(=O)c2cc(C(F)(F)F)cc(C(F)(F)F)c2)CC1 | inconclusive: 35.5 µM [inhibitor, single point] | –
29 | CCOc1ccc(N2CC(c3nc4ccccc4n3CCOc3ccc(CC)cc3)CC2=O)cc1 (stereo not drawn) | inconclusive: 2.51 µM [inhibitor, full curve, poor fit] | –
30 | Cc1ccc2cc(C(c3nnnn3C3CCCC3)N(Cc3cccnc3)Cc3ccco3)c(=O)[nH]c2c1 (stereo not drawn) | inconclusive: 11.2 µM [inhibitor, single point] | –
31 | CCOc1ccccc1C(=O)NC(C)CCc1ccccc1 (stereo not drawn) | – | inactive: -7.09%
32 | COC(=O)c1cccc(CN2C(=O)C(C)Sc3ccc(C(C)=O)cc32)c1 (stereo not drawn) | inconclusive: 3.16 µM [inhibitor, single point] | –
33 | COc1ccc2oc(C(=O)Nc3nc4ccccc4[nH]3)c(C)c2c1 | inconclusive: 35.5 µM [inhibitor, single point] | –
34 | CCc1ccc(-c2cn(-c3nc(C)cc(C)n3)c(=N)o2)cc1 | inconclusive: 35.5 µM [inhibitor, single point] | –
35 | Cc1cc(N2CCN(c3ccc(C(F)(F)F)cc3[N+](=O)[O-])CC2)c2ccccc2n1 | active: 10 µM | –
36 | O=S(=O)(c1cccs1)N1CCN(CC(O)COc2cc(Cl)ccc2Cl)CC1 (stereo not drawn) | inconclusive: 0.891 µM [inhibitor, full curve, poor fit] | –
37 | COc1ccc(/C=C2/CCc3ccccc3C2=O)cc1OC | – | inactive: -28.6%
38 | Cn1cc([N+](=O)[O-])c(C(=O)Nc2ccn(Cc3c(F)c(F)cc(F)c3F)n2)n1 | inconclusive: 35.5 µM [inhibitor, single point] | –
39 | COc1ccc(Nc2oc(-c3ccccc3)nc2C#N)cc1 | inconclusive: 6.31 µM [inhibitor, single point] | –
40 | CCN(CC)S(=O)(=O)c1ccc(N2CCOCC2)c(NC(=O)c2sccc2C)c1 | inconclusive: 3.16 µM [inhibitor, single point] | –
41 | Cc1cccc(N=C2NC(=O)C(CO)(CO)S2)c1 | inconclusive: 3.16 µM [inhibitor, single point] | –
42 | CCNCCC(=O)N1c2ccccc2Sc2ccc(C(F)(F)F)cc21 | inconclusive: 35.5 µM [inhibitor, single point] | –
43 | N#Cc1ccsc1NC(=O)CCS(=O)(=O)c1ccccc1 | inconclusive: 35.5 µM [inhibitor, single point] | –
